Measurements reported in the supplement of paper PMC12067230.
The data scatter; read single values as rough.

assay: amyloid nucleation score relative to library mode (yeast Sup35 reporter selection) (log enrichment difference); higher = more amyloid nucleation; sequences are the first 22 residues of the Bri2 peptide extended by up to 12 random residues; details: random library (experiment): 1;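 active = nucleation score significantly above 0 at FDR 0.05; inactive = not significantly above 0 or absent from output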
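Further: [psi-pin-] Saccharomyces cerevisiae expressing SupN fusions, induced by 100 µM Cu2SO4, selected 7 d at 30 °C without adenine and uracil, scored by deep sequencing of output versus input.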

Row | Sequence | amyloid nucleation score
1 | EASNCFAIRHFENKFAVETLICVTVLPSRMALVS | inactive
2 | EASNCFAIRHFENKFAVETLICVTVPNGHVFLIE | 1.95
3 | EASNCFAIRHFENKFAVETLICVTVRRRGPSWLY | -0.146
4 | EASNCFAIRHFENKFAVETLICVTVWTSVRPECG | inactive
5 | EASNCFAIRHFENKFAVETLICVTWHVTFDTSEQ | inactive
6 | EASNCFAIRHFENKFAVETLICVV | inactive
7 | EASNCFAIRHFENKFAVETLICVVARSPGFVRAR | inactive
8 | EASNCFAIRHFENKFAVETLICVVAWALGAWLQY | inactive
9 | EASNCFAIRHFENKFAVETLICVVCEWDGQAHLS | 4.77
10 | EASNCFAIRHFENKFAVETLICVVCNRSERFWAL | 4.63
11 | EASNCFAIRHFENKFAVETLICVVCRHVTSSLRL | inactive
12 | EASNCFAIRHFENKFAVETLICVVCTTSRPYMVR | inactive
13 | EASNCFAIRHFENKFAVETLICVVCVYFIRFAMR | 3.14
14 | EASNCFAIRHFENKFAVETLICVVDMLMPFGARC | inactive
15 | EASNCFAIRHFENKFAVETLICVVDQPARDVSAL | 0.674
16 | EASNCFAIRHFENKFAVETLICVVEKNASIEAKA | inactive
17 | EASNCFAIRHFENKFAVETLICVVENTLDVWV | 3.75
18 | EASNCFAIRHFENKFAVETLICVVEQWSKAGMEK | -0.25
19 | EASNCFAIRHFENKFAVETLICVVFGSCGVRVLP | -0.179
20 | EASNCFAIRHFENKFAVETLICVVFLLRRGRSGM | inactive
21 | EASNCFAIRHFENKFAVETLICVVFTY | inactive
22 | EASNCFAIRHFENKFAVETLICVVFVVFRMVHEG | inactive
23 | EASNCFAIRHFENKFAVETLICVVGASGAGVMCW | inactive
24 | EASNCFAIRHFENKFAVETLICVVGCAARLVAWV | inactive
25 | EASNCFAIRHFENKFAVETLICVVGGSMRQDWID | inactive
26 | EASNCFAIRHFENKFAVETLICVVGMYD | inactive

Row | Sequence | amyloid nucleation score
27 | EASNCFAIRHFENKFAVETLICVVGRSCESGGAV | inactive
28 | EASNCFAIRHFENKFAVETLICVVI | 5.71
29 | EASNCFAIRHFENKFAVETLICVVIALRWKCSAA | -0.235
30 | EASNCFAIRHFENKFAVETLICVVIRDDRRTLSG | 5.32
31 | EASNCFAIRHFENKFAVETLICVVITGRDQVGPV | 4.84
32 | EASNCFAIRHFENKFAVETLICVVKCCFWLRCWG | inactive
33 | EASNCFAIRHFENKFAVETLICVVLAVAPWEQGA | -0.534
34 | EASNCFAIRHFENKFAVETLICVVLLSVEYGYLG | inactive
35 | EASNCFAIRHFENKFAVETLICVVLREWVLWHGW | inactive
36 | EASNCFAIRHFENKFAVETLICVVLRRAGYAFRK | inactive
37 | EASNCFAIRHFENKFAVETLICVVLRTWD | inactive
38 | EASNCFAIRHFENKFAVETLICVVLSDIS | 5.72
39 | EASNCFAIRHFENKFAVETLICVVLVGLNSMLKT | inactive
40 | EASNCFAIRHFENKFAVETLICVVLWGAACKSTG | inactive
41 | EASNCFAIRHFENKFAVETLICVVLYSS | inactive
42 | EASNCFAIRHFENKFAVETLICVVMPLALVRTGE | 0.74
43 | EASNCFAIRHFENKFAVETLICVVMSRRDLNKSA | inactive
44 | EASNCFAIRHFENKFAVETLICVVMTVTWLSPVM | inactive
45 | EASNCFAIRHFENKFAVETLICVVNKARWTLAWV | inactive
46 | EASNCFAIRHFENKFAVETLICVVPGVVR | inactive
47 | EASNCFAIRHFENKFAVETLICVVPNALE | 2.01
48 | EASNCFAIRHFENKFAVETLICVVQLRMTHVNVL | -0.25
49 | EASNCFAIRHFENKFAVETLICVVQYNVLHTDAG | 6.49
50 | EASNCFAIRHFENKFAVETLICVVRKGLVVLWVW | inactive
51 | EASNCFAIRHFENKFAVETLICVVRMACRINNRS | inactive
52 | EASNCFAIRHFENKFAVETLICVVRP | inactive

same assay, conditions: random library (experiment): 2

Row | Sequence | amyloid nucleation score
53 | EASNCFAIRHFENKFAVETLICVTVNRGLVRFGC | 3.41
54 | EASNCFAIRHFENKFAVETLICVTVQRSH | -0.223
55 | EASNCFAIRHFENKFAVETLICVTYDDVVCHVVL | 0.545
56 | EASNCFAIRHFENKFAVETLICVTYTGTVCDTRL | inactive
57 | EASNCFAIRHFENKFAVETLICVVCESRVLNTMW | 4.59
58 | EASNCFAIRHFENKFAVETLICVVFDMAYRRGAS | inactive
59 | EASNCFAIRHFENKFAVETLICVVFSSLVSYVWE | inactive
60 | EASNCFAIRHFENKFAVETLICVVGK | -0.157
61 | EASNCFAIRHFENKFAVETLICVVGKSSIRCQLS | inactive
62 | EASNCFAIRHFENKFAVETLICVVHCEGSWHSDT | 3.98
63 | EASNCFAIRHFENKFAVETLICVVIFKSGSLDIS | inactive
64 | EASNCFAIRHFENKFAVETLICVVISHNYVGW | 2.84
65 | EASNCFAIRHFENKFAVETLICVVKAQYAMSVNR | 2.34
66 | EASNCFAIRHFENKFAVETLICVVKNLNVSWCVW | inactive
67 | EASNCFAIRHFENKFAVETLICVVKTYHFDRRFM | 4.03
68 | EASNCFAIRHFENKFAVETLICVVLCFRNIWVCE | inactive
69 | EASNCFAIRHFENKFAVETLICVVLLGIQYIMGP | inactive

Row | Sequence | amyloid nucleation score
70 | EASNCFAIRHFENKFAVETLICVVLMFRSRRI | 1.08
71 | EASNCFAIRHFENKFAVETLICVVLSVNVYCSMG | -0.378
72 | EASNCFAIRHFENKFAVETLICVVLVGMTGYC | inactive
73 | EASNCFAIRHFENKFAVETLICVVLVLKGHHNAS | inactive
74 | EASNCFAIRHFENKFAVETLICVVLVVFSGGTSL | inactive
75 | EASNCFAIRHFENKFAVETLICVVLWMRMTDFRE | inactive
76 | EASNCFAIRHFENKFAVETLICVVLYMRMYFPNN | 4.3
77 | EASNCFAIRHFENKFAVETLICVVMCDGLANSLW | 5.12
78 | EASNCFAIRHFENKFAVETLICVVN | 1.63
79 | EASNCFAIRHFENKFAVETLICVVNLLNHSSISS | 5.98
80 | EASNCFAIRHFENKFAVETLICVVNTQFVEQPYL | 4.72
81 | EASNCFAIRHFENKFAVETLICVVPCVDRCCLTL | 2.8
82 | EASNCFAIRHFENKFAVETLICVVPYEQTVQVVR | inactive
83 | EASNCFAIRHFENKFAVETLICVVQFDMSVPFGQ | inactive
84 | EASNCFAIRHFENKFAVETLICVVQISNGHVNNG | 9.52
85 | EASNCFAIRHFENKFAVETLICVVRCIGVCGLAC | inactive
86 | EASNCFAIRHFENKFAVETLICVVRLSKVRLVDI | inactive

same assay, conditions: random library (experiment): 3

Row | Sequence | amyloid nucleation score
87 | EASNCFAIRHFENKFAVETLICVTVRSRRGSGSR | inactive
88 | EASNCFAIRHFENKFAVETLICVTVYGCDWNRFR | inactive
89 | EASNCFAIRHFENKFAVETLICVVATGEWVLGSW | inactive
90 | EASNCFAIRHFENKFAVETLICVVAWHSEVGLWG | 3.43
91 | EASNCFAIRHFENKFAVETLICVVCISDLASWWD | 5.35
92 | EASNCFAIRHFENKFAVETLICVVCRYRLELESP | inactive
93 | EASNCFAIRHFENKFAVETLICVVDVARPSAVTV | inactive
94 | EASNCFAIRHFENKFAVETLICVVEAQVPAHMKL | inactive
95 | EASNCFAIRHFENKFAVETLICVVFGITSKRYPT | inactive
96 | EASNCFAIRHFENKFAVETLICVVFLV | inactive
97 | EASNCFAIRHFENKFAVETLICVVGGGRLCAMRA | inactive
98 | EASNCFAIRHFENKFAVETLICVVGMCSYASELW | 4.06
99 | EASNCFAIRHFENKFAVETLICVVGMVRGRSEIA | 2.62
100 | EASNCFAIRHFENKFAVETLICVVHACGWGLVH | inactive
101 | EASNCFAIRHFENKFAVETLICVVHGLGCACRVL | 2.55
102 | EASNCFAIRHFENKFAVETLICVVIAMCTSNFCV | inactive

Row | Sequence | amyloid nucleation score
103 | EASNCFAIRHFENKFAVETLICVVILRCIPVKTQ | inactive
104 | EASNCFAIRHFENKFAVETLICVVINCRGREVWI | 2.11
105 | EASNCFAIRHFENKFAVETLICVVITWGKERRCD | inactive
106 | EASNCFAIRHFENKFAVETLICVVKNLTNADMSG | 7.71
107 | EASNCFAIRHFENKFAVETLICVVKTFAGLPRPW | inactive
108 | EASNCFAIRHFENKFAVETLICVVKVF | inactive
109 | EASNCFAIRHFENKFAVETLICVVLVARRTDQFG | inactive
110 | EASNCFAIRHFENKFAVETLICVVMLGF | inactive
111 | EASNCFAIRHFENKFAVETLICVVMRLYRWVHAH | inactive
112 | EASNCFAIRHFENKFAVETLICVVMVTMRWCSMR | inactive
113 | EASNCFAIRHFENKFAVETLICVVNKLKSSGCAY | inactive
114 | EASNCFAIRHFENKFAVETLICVVNRYERVARYW | 5.31
115 | EASNCFAIRHFENKFAVETLICVVRFFKLVMPVW | inactive
116 | EASNCFAIRHFENKFAVETLICVVRFMRTCCCGC | 2.71
117 | EASNCFAIRHFENKFAVETLICVVRHGGIMVDSG | inactive
118 | EASNCFAIRHFENKFAVETLICVVRKRREPVRVM | inactive
